Experimental data published in PubChem BioAssay AID1745845 (National Center for Advancing Translational Sciences (NCATS), 2022).
“And” between values parts separate entries of the source, which are not always exact repeats. Identical values can stand only once. Screen size: about 360,000 compounds; about 2,600 (0.72%) were called active. The inconclusive results got no clear call from the source; some entries with a clear call stand among them for comparison. Calls come from the whole dose curve; as a rule, active = well fitted inhibition curve with a large enough effect; inconclusive = small, poorly fitted or top-dose-only effect; inactive = no such curve, though single readings can be large or run the other way. Potencies of inconclusive entries are doubtful fits and often do not repeat.

assay: Primary qHTS for Inhibitors of ATXN expression; conditions: HEK-293 ATXN2-luciferase reporter, luminescence, 24 h; activity change, negative = inhibition: at 57 µM (top of the series); note: nearly all actives have a fitted effect of over 55% in size
Outline: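 ATXN2-luciferase reporter cells (luciferase flanked by upstream and downstream ATXN2 gene portions) were treated 24 h at 37 °C with compounds at up to 57 uM. SteadyGlo luminescence gave expression; GF-AFC fluorescence gave viability.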
% is set by controls: 0 for no effect and ±100 for the full control effect; potency is the fitted concentration of half-maximal effect; tags give direction and shape of the fitted curve.

Potency, inconclusive:
Nc1[nH]c(C(=O)c2ccccc2)c(-c2ccccc2C(F)(F)F)c1C(=O)NCCc1c[nH]c2ccccc12 25.1 µM [inhibitor, single point]
COc1cccc(OC)c1NC(=O)c1ccc(-c2cc(Cl)ccc2Cl)o1 22.4 µM [inhibitor, single point]
S=c1nc[nH]c2nc[nH]c12 24.3 µM [inhibitor, partial curve, poor fit] and 10 µM [inhibitor, partial curve] and 15.8 µM [inhibitor, partial curve, poor fit]
O=C(Nc1ccc(F)c(Cl)c1)C1Cc2c(-c3cccc(F)c3)ccnc2O1 (centres undefined) 31.6 µM [inhibitor, single point]
O=C(Nc1nc2ccc(F)cc2s1)c1nc(S(=O)(=O)Cc2ccccc2)ncc1Cl 31.6 µM [inhibitor, single point]
CC1CCc2c(sc3nc(C(C)(C)C)nc(N4CCN(C(=O)CCl)CC4)c23)C1 (centres undefined) 20 µM [inhibitor, partial curve, poor fit]
Cc1ccc2nc(NC(=O)CSCC(=O)OCC(=O)c3ccccc3)sc2c1 2.51 µM [inhibitor, full curve]
O=C(Nc1cccc(S(=O)(=O)N2CCCCC2)c1)Nc1ccc(Cl)cc1Cl 31.6 µM [inhibitor, single point]
CSc1ncc(Cl)c(C(=O)N(Cc2ccc(N(C)C)cc2)Cc2ccco2)n1 20 µM [inhibitor, single point]
C(=C\c1nc(N2CCCCCC2)c2ccccc2n1)/c1ccccc1 39.8 µM [inhibitor, single point]
Cc1cc(C)c2sc(NNC(=O)c3ccc(S(=O)(=O)N4CCc5ccccc5C4)cc3)nc2c1 5.97 µM [inhibitor, full curve, poor fit]
CCCCOc1ccc(CNC(=O)CCCN2C(=O)CSc3c2c(C)nn3-c2ccccc2)cc1 39.8 µM [inhibitor, single point]
O=C(Oc1c(CN2CCOCC2)cc(Cl)c2cccnc12)c1ccccc1F 23.8 µM [inhibitor, partial curve, poor fit]
CC(C)N1CCc2c(sc(NC(=O)c3cc(-c4cccs4)nc4ccccc34)c2C(N)=O)C1 26.7 µM [inhibitor, single point]
CCC(NC(=S)NCc1ccc(F)cc1)c1ccccc1 (centres undefined) 39.8 µM [inhibitor, single point]
COc1ccccc1NC(=O)CN1C(=O)C2(SCC(=O)N2c2ccc(C)c(C)c2)c2ccccc21 (centres undefined) 17.8 µM [inhibitor, partial curve, poor fit]
O=C(NCCCN1CCN(c2ccc(F)cc2)CC1)Nc1ccc([N+](=O)[O-])cc1 14.1 µM [inhibitor, partial curve]
CC(c1cccs1)N(Cc1ccco1)C(=O)Nc1ccc(Cl)c(Cl)c1 (centres undefined) 39.8 µM [inhibitor, partial curve, poor fit]
CC(C)c1cccc(-c2ccc3c(c2)S(=O)(=O)c2cccc(C(=O)NCc4ccco4)c2C3=O)c1 20 µM [inhibitor, partial curve, poor fit]
CCSc1ccc(-c2cc(NC=O)c3ncc(-c4cccc(C(=O)N(C)C)c4)n3c2)cc1 35.5 µM [inhibitor, single point]
Cc1nnsc1SCC(=O)O 39.8 µM [inhibitor, single point]
CC(C)C[C@@H](CN1CCC[C@@H]1CN1C(=O)C(=O)NC[C@@H]1Cc1ccccc1)N1C[C@H](Cc2ccc(O)cc2)N(CC2CCCCCC2)C(=O)C1=O 39.8 µM [inhibitor, single point]
Cc1ccc(N2C(=O)c3[nH]nc(-c4ccc(Cl)cc4)c3C2c2ccc(F)cc2)cc1 (centres undefined) 39.8 µM [inhibitor, single point]
Cc1cccc(-c2ccc3[nH]c4c(c3c2)CCN2C[C@H]3[C@H](C)ON(C)[C@H]3C[C@@H]42)c1 39.8 µM [inhibitor, partial curve, poor fit]
CSc1nnc(NC(=O)c2nc(S(=O)(=O)Cc3ccccc3)ncc2Cl)s1 39.8 µM [inhibitor, single point]

Potency, active:
O=C(N/N=C/c1ccc([N+](=O)[O-])o1)c1ccc2c(c1)OCO2 10 µM
COc1cc(C2c3cc4c(cc3C(OC3OC5COC(c6cccs6)OC5C(O)C3O)C3COC(=O)C23)OCO4)cc(OC)c1O (centres undefined) 0.316 µM

Activity change, negative = inhibition, inactive:
CC/C(O)=C1\C(=O)CC(C)(C)CC1=Nc1ccccc1C 1.09%
CC1CCC(NC(=O)CCN2C(=O)C3C4C=CC(C4)C3C2=O)CC1 (centres undefined) 6.28%
O=S1(=O)C=C(SCc2ccc(F)cc2)Nc2ccccc21 -5.26% [at 11.3 µM]
Cc1onc(-c2ccccc2Cl)c1C(=O)Nc1ccc(-c2cn3cccnc3n2)cc1 -0.999%
Cc1cc(NCCNC2=CC(=O)CCC2)nc2ccccc12 5.03%
CCC1(c2ccccc2)NC(=O)N(CC(=O)Nc2ccc(Cl)c(S(=O)(=O)N3CCCCC3)c2)C1=O (centres undefined) -2.55%
CCOc1cc(N2CCOCC2)c(OCC)cc1NC(=O)c1ccc(OC)c(S(=O)(=O)N2CCOCC2)c1 1.93%
COc1cccc(C(=O)Nc2ccc(-c3cn4cccnc4n3)cc2)c1OC -0.92%
COc1cccc(C(=O)Nc2ccc3c(cc2=O)[C@@H](NC(C)=O)CCc2cc(OC)c(OC)c(OC)c2-3)c1 -32.2%
CC1=CC(C)(C)N2C(=O)C3(C(C#N)=C(N)OC4=C3C(=O)CCC4)c3c(C)c(C)cc1c32 (centres undefined) -12.4%
CC(C)C(=O)N1CCN(S(=O)(=O)c2ccc3ccccc3c2)CC1 -17.1%
CNS(=O)(=O)c1cccc(C(=O)OCC(=O)c2c(N)n(Cc3ccccc3)c(=O)n(C)c2=O)c1 1.24%
